Where a name gives a salt, the structure may show the parent alone.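 In this assay, cells in 96-well plates receive the compound at five concentrations for 48 hours. Endpoints are linearly interpolated between the surrounding concentrations. GI50 marks 50% less growth.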 The source made the active and inactive calls. Rule as the data show it: active = GI50 up to about 1.1 µM and inactive = higher.
Test system: NCI-H322M
Experiment: NCI tumour cell line growth inhibition, 48 h

| SMILES | GI50 |
| --- | --- |
| CCOC(=O)C(=O)Nc1ccccc1CC | inactive: > 100 µM |
| O=C(CC(c1ccccc1)C(C(=O)c1ccncc1)C(CC(=O)c1ccncc1)c1ccccc1)c1ccncc1 (centres undefined) | inactive: > 100 µM |
| CN1C/C(=C\c2cccs2)C2=NN(C)C(c3cccs3)C2C1 (centres undefined) | inactive: > 100 µM |
| CCN(CC)CCNc1ccc2ncn3c4ccc(OC)cc4c(=O)c1c23 | inactive: 2.14 µM |
| CN(C)CC1CCC/C(=C\c2ccc(Cl)c(Cl)c2)C1=O (centres undefined) | inactive: 15.5 µM |
| Cc1ccc(C(=O)N/N=C(\N=N\c2cccc(C)c2)c2ccc(N(CCC#N)CCC#N)cc2C)cc1 | inactive: > 100 µM |
| O=S(=O)(SCCCCSS(=O)(=O)c1ccc(Cl)cc1)c1ccc(Cl)cc1 | inactive: 14.9 µM |
| CC(=O)OC/C=C/[C@H](O[Si](C)(C)C(C)(C)C)[C@@H](O)/C=C/COC(C)=O | inactive: > 100 µM |
| COCCn1cnc2c(Cl)nc(Nc3ccccc3)nc21 | inactive: 29.2 µM |
| CNC(=O)OCc1nc(SC(C)C)n(C)c1COC(=O)NC | inactive: > 100 µM |
| C\C(=N/N=C1/C(=C\N(C)C)C(=O)NC(=O)N1C)c1ccc(Cl)cc1 | inactive: > 100 µM |
| CCOC(=O)C(=O)Nc1nc2ccc(C)cc2s1 | inactive: > 100 µM |
| COC(=O)C1SC[C@H]2C(=O)N(c3ccccc3)C(=O)N12 (some centres undefined) | inactive: > 100 µM |
| COc1ccc(-c2cc3cc(Cl)cc(Cl)c3oc2=O)cc1OC | inactive: 23.6 µM |
| c1ccc2[nH]c(C3CCCCO3)nc2c1 (centres undefined) | inactive: > 100 µM |
| Cc1ccsc1C(=S)Nc1ccc(Cl)c(/C=N/OC(C)C)c1 | inactive: 94 µM |
| NC(=O)Cn1c(=O)[nH]c(=O)c2[nH]cnc21 | inactive: > 100 µM |
| N#CC1(C#N)C(c2ccccc2)C=CC(c2ccc([N+](=O)[O-])cc2)C1(C#N)C#N (centres undefined) | inactive: 18.5 µM |
| CC(C)COC(=O)c1ccc(/N=C\c2ccc(/C=N/c3ccc(C(=O)OCC(C)C)cc3)cc2)cc1 | inactive: > 100 µM |
| O=P(c1ccccc1)(c1ccccc1)C1CC=C(c2ccccc2)C2(CCCC2)C1 (centres undefined) | inactive: 31.3 µM |
| CCN(CC)Cc1ccc(C(=S)Nc2ccc(C)cc2)s1 | inactive: 17.8 µM |
| NC1N=Nc2ccccc21 (centres undefined) | inactive: > 100 µM |
| CC[N+]1(C)CCC(O)(c2ccc(Cl)c(Cl)c2)C(C(=O)c2ccc(Cl)c(Cl)c2)C1 (centres undefined) | inactive: > 10 µM |
| Clc1ccc(-c2c(C3=NCCCN3)nnn2-c2ccccc2)cc1 | inactive: > 100 µM |

| SMILES | GI50 |
| --- | --- |
| CC[C@@]1(O)C(=O)OCc2c1cc1n(c2=O)Cc2c-1nc1ccccc1c2/C=N\NC(=O)C(N)Cc1ccc(O)cc1 (some centres undefined) | inactive: 3.56 µM |
| CCOC(=O)c1c(SC(=O)c2ccc(OC)cc2)n(-c2ccccc2)c(=S)n(-c2ccccc2)c1=O | inactive: 36.5 µM |
| Cc1nc(C(N)=S)sc1C(=O)CC(=O)C(=O)Nc1ccc(Br)cc1 | inactive: > 100 µM |
| CC(O)C(O)C(N)CC=O (centres undefined) | inactive: > 500 µM |
| Cn1c(=O)c2c(nc3n(Cc4ccccc4)c(=O)c(NCCCBr)cn23)n(C)c1=O | inactive: > 100 µM |
| COc1cc(/C=C2/SC(c3ccccc3)N(c3ccccc3)C2=O)cc(OC)c1OC (centres undefined) | inactive: > 100 µM |
| O=C(CC1(O)C(=O)Nc2ccccc21)c1ccc(O)cc1O (centres undefined) | inactive: > 100 µM |
| CC1(C)OP23(NC(=O)OC2(C(F)(F)F)c2ccccc2O3)OC1(C)C (centres undefined) | inactive: > 100 µM |
| [N-]=[N+]=Nc1ccc2c(c1)Sc1ccccc1N2CCCCN1CCN(Cc2ccc(C(=O)c3ccccc3)cc2)CC1 | inactive: 4.06 µM |
| C=C(CC[C@@H](C(=O)O)[C@H]1[C@H](O)C[C@@]2(C)C3=CC[C@@H](C(=C)C)[C@](C)(CCC(=O)O)C3=CC[C@]12C)C(C)C [PORICOIC ACID A] | inactive: 17.7 µM |
| CC12CCC(/C(=N/c3ccc([N+](=O)[O-])cc3)C1=O)C2(C)C (centres undefined) | inactive: 38.9 µM |
| N#CCCN(CCCN(CCCN(C(=O)Nc1ccccc1)c1ccccc1)C(=O)Nc1ccccc1)C(=O)Nc1ccccc1 | inactive: > 8.75 µM |
| COC(=O)c1scc(N)c1-n1ccc(=O)[nH]c1=O | inactive: > 100 µM |
| CCC(Oc1ccc(OC)c2c1C(=O)CCC2)C(=O)O (centres undefined) | inactive: > 100 µM |
| O=C1C(Cl)=C(N2CCN(CCOCCO)CC2)C(=O)c2c(O)ccc(O)c21 | inactive: 1.61 µM |
| O=C(Nc1ccc2c(c1)oc(=O)c1ccccc12)C(Cl)Cl | inactive: 17.6 µM |
| Fc1ccc(OCc2ccc3nc(-c4ccccc4)c(Cl)nc3c2)cc1 | inactive: 70.5 µM |
| O=C(N/C(=C\c1cc(Cl)ccc1Cl)c1nc2cc(Cl)ccc2[nH]1)c1ccccc1 | inactive: 18.8 µM |
| O=C1C(Cl)=C(OCCCCl)C(=O)c2c(O)ccc(O)c21 | inactive: 1.72 µM |
| NCCCc1ccc2oc3ccccc3c2c1 | inactive: 11.5 µM |
| CC(=O)N1CCc2[nH]c3ccccc3c2CC1 | inactive: > 100 µM |
| OCC1OC(c2nc(C3=NCCCN3)cs2)C(O)C1O (centres undefined) | inactive: > 100 µM |
| CC(C)[Si]1(C(C)C)OCC2OC3(CO)C(Oc4nc(=O)ccn43)C2O[Si](C(C)C)(C(C)C)O1 (centres undefined) | inactive: 16.6 µM |
| CC(=O)N1[C@H](C(=O)O)CS[C@H]1c1ccncc1 | inactive: > 100 µM |

| SMILES | GI50 |
| --- | --- |
| N/N=C(\c1nc2ccc([N+](=O)[O-])cc2nc1O)C(O)c1ccc(Cl)c(Cl)c1 (centres undefined) | inactive: > 100 µM |
| CCNC(=O)Nc1cccc(C)n1 | inactive: > 100 µM |
| Cc1ccc(C(=O)/C(C#N)=C/Nc2c(C)n(C)n(-c3ccccc3)c2=O)cc1 | inactive: > 100 µM |
| CC(NC(=O)C(N)CC(=O)O)C(=O)OC12CC3CC(CC(C3)C1)C2 (centres undefined) | inactive: > 100 µM |
| COCCOCOC(C)(C)[C@H](CCOC(C)=O)O[Si](c1ccccc1)(c1ccccc1)C(C)(C)C | inactive: 16.3 µM |
| C/C(=N/Nc1ccc([N+](=O)[O-])cc1[N+](=O)[O-])C(CC(C(=O)NCc1ccccc1)/C(C)=N\Nc1ccc([N+](=O)[O-])cc1[N+](=O)[O-])C(=O)NCc1ccccc1 (centres undefined) | inactive: 1.86 µM |
| O=C(Nc1ccccc1-c1n[nH]c(S)nc1=O)C(F)(F)F | inactive: > 100 µM |
| CCOC(=O)C1C=C1C(C)(C)O (centres undefined) | inactive: > 10 µM |
| O=C(N/N=C(COc1ccccc1Cl)\N=C\c1cccnc1)c1ccncc1 | inactive: > 100 µM |
| CCN(CC)CCOc1ccc(N2C(=O)c3cccc4cc([N+](=O)[O-])cc(c34)C2=O)cc1 | inactive: 15.1 µM |
| Cc1ccc(/C=C2\CCCc3ccccc3C2=O)cc1 | inactive: 31 µM |
| COc1ccc(OC)c(/C=N/N=C2\C(=O)Nc3c(Cl)cc(Cl)cc32)c1 | inactive: > 100 µM |
| COc1ccc(C2CCc3c(cnc4nc(N)nc(N)c34)C2)cc1 (centres undefined) | inactive: 28.2 µM |
| CCOC(=O)C1(C/C=C(/C)Cl)CCCC1=O (centres undefined) | inactive: > 100 µM |
| CCOc1ccc2nc(NC(=O)c3c/c(=N\NC(=O)C[N+](C)(C)C)c4ccc(O)cc4o3)sc2c1 | inactive: 10.5 µM |
| CCOC(=N)CC(=O)Nc1ccc(Cl)cc1 | inactive: > 100 µM |
| O=C(O)Cc1ccc([N+](=O)[O-])cc1[N+](=O)[O-] | inactive: > 100 µM |
| CN(C)CCN(C)C(=O)C1CCCN1C(=O)OCc1ccccc1 (centres undefined) | inactive: > 100 µM |
| [O-][S+](Nc1ccccc1)c1cccc(Cl)c1 (centres undefined) | inactive: 64 µM |
| O=C1c2ccccc2CN1c1ccc(OCCN2CCCCC2)cc1 | inactive: > 10 µM |
| COc1ccc(-c2c3c(cc4cc5c(cc24)OCO5)C(=O)OC3)cc1OC | inactive: 1.66 µM |
| CN(C)C(=O)C(F)(F)C(c1ccc(Br)cc1)C1C(=O)N(C)C(=O)N(C)C1=O (centres undefined) | inactive: > 100 µM |
| CCOC(=O)C1(C(=O)OCC)COS(=O)OC1 | inactive: > 100 µM |
| Cc1cc(=O)n2c(cc3cccccc32)n1 | inactive: > 100 µM |

| SMILES | GI50 |
| --- | --- |
| Cc1cccc(NC2=NC(=O)C(CC(=O)Nc3ccccc3Cl)S2)c1 (centres undefined) | inactive: > 100 µM |
| O=C1C[C@H](Sc2ccccc2)C2(OCCO2)[C@H]2ON3CCC[C@@H]3[C@@H]12 | inactive: 6.7 µM |
| CCCCSC1=N/C(=C\c2ccco2)C(Cl)=N1 | inactive: > 100 µM |
| CCN(CC)CCNc1ccc(CO)c2sc3ccccc3c(=O)c12 [HYCANTHONE MESYLATE] | inactive: 11 µM |
| N#C/C=c1/c2ccccc2n2nc3ccccc3c12 | inactive: 27.2 µM |
| CCOC(=O)c1s/c(=N\Nc2nc3ccccc3cc2C2OCCO2)n(Cc2ccccc2)c1C | inactive: > 100 µM |
| O=S(=O)(O)c1c(Cl)c(Cl)c(O)c2ncccc12 | inactive: 11.9 µM |
| N=C1NC2(O)C(=O)c3ccccc3C2(O)N1 (centres undefined) | inactive: > 100 µM |
| Cc1ccc(/N=N/C(=N/c2ccccc2)c2ccc(N(CCC#N)CCC#N)cc2)cc1 | inactive: 51.1 µM |
| COC(=O)CCCC1(CCCC(=O)OC)CCCCCCCCC(CCCC(=O)OC)(CCCC(=O)OC)C(=O)C1=O | inactive: > 100 µM |
| c1ccc2c(CNCCCCCCNCc3cccc4ccccc34)cccc2c1 | inactive: 2.98 µM |
| O=[N+]([O-])c1ccc(C2c3c(O)nc(S)nc3Oc3nc(S)nc(O)c32)cc1 | inactive: > 100 µM |
| O=C(/C=C/c1ccccc1)c1ccccc1 [CHALCONE] | inactive: > 10 µM |
| CCOC(=O)c1ccc(N(CCOS(C)(=O)=O)CCOS(C)(=O)=O)cc1 | inactive: > 100 µM |
| CC(=O)Nc1cccc(N2C(=O)/C(=C\c3cccc(Oc4ccccc4)c3)SC2c2ccccc2)c1 (centres undefined) | inactive: > 100 µM |
| O=C(COc1ccc(Cl)cc1Cl)N/N=C/C=C/c1ccc([N+](=O)[O-])o1 | inactive: 26.3 µM |
| CC1=NN(c2nc(N)nc(CN3CCOCC3)n2)C(C)(C)C1 | inactive: > 100 µM |
| CS(=O)(=O)OCCN(CCOS(C)(=O)=O)c1ccc(/C=N/c2ccc3oc(=O)ccc3c2)cc1 | inactive: 16.3 µM |
| CCOC(=O)Nc1nn[nH]c1Cl | inactive: > 100 µM |
| COP(=O)(OC)C(NC(=O)C(F)(F)F)(c1ccccc1)C(F)(F)F (centres undefined) | inactive: > 100 µM |
| Nc1ncnc2c1ncn2C1OC(CSCc2ccc(Cl)cc2)C(O)C1O (centres undefined) | inactive: > 100 µM |
| C=CCOC1=C2CC[C@H](O)[C@@]2(C)CCC1=O | inactive: > 100 µM |

From ChEMBL document CHEMBL1201862, “PubChem BioAssay data set” (2004)
